PubChem BioAssay AID624296 (National Center for Advancing Translational Sciences (NCATS), 2012)
Among all 350,000 compounds or so, about 9,900 (2.8%) were called active. The shares of active, inactive and inconclusive entries below differ from those in the screen. Calls follow the shape of the dose curve; as a rule, active = well fitted activation curve with a large enough effect; inconclusive = small, poorly fitted or top-dose-only effect; inactive = no such curve, though single readings can be large or run the other way. Potencies of inconclusive entries are left out as doubtful fits.

assay: A quantitative high throughput screen for small molecules that induce DNA re-replication in MCF 10a normal breast cells.; also: nearly all actives have a fitted effect of over 50% in size; as to activity, positive = re-replication: % of control where 0% means no effect; conditions: MCF 10A DNA re-replication, Hoechst nuclear intensity, 48 h; activity, positive = re-replication: at 46.1 µM (top of the series)
Potency is read from the fitted curve at half-maximal effect; tags tell the direction and shape of the fitted curve.

Row | Compound | Potency | activity, positive = re-replication
1 | COc1cc(NC(C)CCCN)c2ncccc2c1Oc1ccccc1 (centres undefined) | inconclusive [activator, single point] | –
2 | COc1ccc(CN2CCNC(=O)C2CC(=O)N2CCCCO2)cc1OC (centres undefined) | – | inactive: -20.2%
3 | CCc1nc2ccc(C(=O)N3CCN(c4cccc(Cl)c4)CC3)cc2nc1CC | inconclusive [activator, partial curve, poor fit] | –
4 | COC(=O)c1cc2c(-c3ccccc3)c(C)c3ccccn3c-2c1C(=O)OC | inconclusive [activator, partial curve] | –
5 | OCCC1CN(CCCc2ccccc2)CCN1CCc1ccccc1 (centres undefined) | active: 20.6 µM | –
6 | N/C(=N\OC(=O)C12CC3CC(CC(C3)C1)C2)c1ccccc1 | inconclusive [activator, single point] | –
7 | CCOC(=O)C1(CCOC)CCN(C2C3CC4CC(C3)CC2C4)CC1 (centres undefined) | inconclusive [activator, single point] | –
8 | CCN(CC)CCNC(=O)c1ccc(NC(=O)c2cc(-c3ccco3)nc3ccccc23)cc1 | inconclusive [activator, single point] | –
9 | C[C@@H](C(=O)NCCc1ccc(F)cc1)N1C(=O)N2CCc3c([nH]c4ccccc34)[C@@]2(C)C1=O | inconclusive [activator, full curve, poor fit] | –
10 | CCOc1cc(C(=O)OCc2cccc(OC)c2OC)ccc1OCC(=O)N1CCOCC1 | inconclusive [activator, full curve, poor fit] | –
11 | COc1ccccc1N1C(=O)c2ccc(C(=O)Nc3ccccc3O)cc2C1=O | – | inactive: -8.13%
12 | CC(=O)c1cccc(N(C(=O)c2csnn2)C(C(=O)NC2CCCC2)c2ccccc2)c1 (centres undefined) | – | inactive: 3.61%
13 | COc1cc(OC)c2c(c1)OC(c1ccc(OC)c(OC)c1)C(O)C2=O (centres undefined) | – | inactive: 12.8%
14 | CCOC(=O)c1cccc(-n2cccc2/C=C2\NC(=O)N(CC(=O)O)C2=O)c1 | inconclusive [activator, full curve, poor fit] | –
15 | Cc1ccc(NC(=O)/C(C#N)=C/c2ccccc2C(F)(F)F)cc1 | inconclusive [activator, single point] | –
16 | Cc1cc(C(=O)N2CCC(Cc3ccccc3)CC2)ccc1[N+](=O)[O-] | inconclusive [activator, single point] | –
17 | Cc1ccc(C)c(N2CCN(c3ccc4cc(S(=O)(=O)N5CCCCC5)ccc4n3)CC2)c1 | inconclusive [activator, single point] | –
18 | COCc1cc(C)nc2sc(C(=O)Nc3ccccc3Br)c(N)c12 | inconclusive [activator, partial curve, poor fit] | –
19 | CN(C(=O)c1ccoc1)c1ccc2ccccc2c1 | inconclusive [activator, partial curve, poor fit] | –
20 | CC(=O)c1ccc(N2CCC(c3cc(-c4ccc(Cl)cc4Cl)n[nH]3)CC2)c([N+](=O)[O-])c1 | inconclusive [activator, single point] | –
21 | Cc1cc(NC(=O)NC(=O)c2ccccc2NC(=O)CN)ccc1Oc1ncc(Br)cn1 | – | inconclusive: 82.7% [activator]
22 | COC(=O)c1nn(-c2c(C)n(C)n(-c3ccccc3)c2=O)cc1O | active: 4.11 µM | –

Row | Compound | Potency | activity, positive = re-replication
23 | CCCCCCNC(=O)c1cc(-c2ccco2)nc2ccccc12 | – | inactive: 27.6%
24 | COc1cccc(NC(=S)NCc2cccs2)c1 | – | inactive: 1.2%
25 | Cc1csc2nc(NC(=O)c3ccccc3)sc(=O)c12 | inconclusive [activator, partial curve, poor fit] | –
26 | CCn1cc(CN2CCC(n3nccc3NC(=O)Cc3ccccc3)CC2)c(C)n1 | – | inactive: 4.57%
27 | CCCCNC(=O)C(CC)Sc1nc2sc(C(=O)OC)c(C)c2c(=O)n1N (centres undefined) | – | inactive: 5.09%
28 | COC(=O)c1ccc(/C=C2/SC(=S)N(CCC(=O)N3CCOCC3)C2=O)cc1 | – | inactive: -11.5%
29 | Nc1c(Cl)ncnc1N/N=C/c1ccccn1 | inconclusive [activator, full curve] | –
30 | CCOC(=O)/C=c1\s/c(=C\c2ccc(C)cc2)c(=O)n1CC(=O)NCc1ccco1 | inconclusive [activator, single point] | –
31 | Clc1ccccc1-c1nn2c(COc3ccccc3)nnc2s1 | inconclusive [activator, full curve] | –
32 | Cc1ccc2nc(Nc3nc(-c4ccccc4)cc(=O)[nH]3)nc(C)c2c1 | inconclusive [activator, full curve, poor fit] | –
33 | COc1ccc(C(=O)N(C)Cc2cnn(Cc3ccccc3)c2)cc1S(=O)(=O)N1CCOCC1 | active: 3.66 µM | –
34 | COc1ccc(N2CCN(C(=O)c3cccc(Br)c3)CC2)c([N+](=O)[O-])c1 | inconclusive [activator, single point] | –
35 | Cc1c(C(C)CCCO)oc(=O)c2c1Oc1c(C)c(C(C)C[C@@H](C)O)oc(=O)c1C2 (some centres undefined) | – | inactive: -16.4%
36 | COCCCN1C(=O)C(=O)/C(=C(/O)c2ccc(S(=O)(=O)N3CCCCC3)cc2)C1c1ccc(O)cc1 (centres undefined) | – | inactive: -7.17%
37 | CCOc1cccc2cc(-c3nnc(NCc4ccco4)s3)c(=O)oc12 | active: 20.6 µM | –
38 | CN(C)S(=O)(=O)c1cccc(NC(=O)c2ccc(COc3ccccc3)cc2)c1 | inconclusive [activator, single point] | –
39 | COc1ccc(NC(=O)/C=C/c2cc(Br)ccc2OC)cc1 | inconclusive [activator, single point] | –
40 | CC(C)CCNC(=O)C(c1ccc(O)cc1)N(C(=O)C1COc2ccccc2O1)c1cccc(O)c1 (centres undefined) | – | inactive: 4%
41 | COC(=O)c1ccc(S(=O)(=O)N2CCc3ccccc32)cc1 | inconclusive [activator, single point] | –
42 | COc1ccc(CNC(=O)c2ccc(N3CCC4(CC3)CC(c3ccc(Cl)cc3)=NO4)c([N+](=O)[O-])c2)cc1 | – | inactive: 2.07%
43 | COc1ccc2cc(-c3ccccc3)c(=O)oc2c1 | – | inactive: 12.5%
44 | CC1CCCC(NC(=O)CSC2CCCCC2)C1C (centres undefined) | inconclusive [activator, partial curve, poor fit] | –
